Measurements: the supplement of paper PMC3334620
The full ranking holds about 33,000 sequences; the median of “E-score (-0.5 to 0.5)” is about -0.016, and the highest 2% start at about 0.32. The list shows a part of the results.

Target: T1, Stp1 (UniProt B3LFK1)
T1 sequence: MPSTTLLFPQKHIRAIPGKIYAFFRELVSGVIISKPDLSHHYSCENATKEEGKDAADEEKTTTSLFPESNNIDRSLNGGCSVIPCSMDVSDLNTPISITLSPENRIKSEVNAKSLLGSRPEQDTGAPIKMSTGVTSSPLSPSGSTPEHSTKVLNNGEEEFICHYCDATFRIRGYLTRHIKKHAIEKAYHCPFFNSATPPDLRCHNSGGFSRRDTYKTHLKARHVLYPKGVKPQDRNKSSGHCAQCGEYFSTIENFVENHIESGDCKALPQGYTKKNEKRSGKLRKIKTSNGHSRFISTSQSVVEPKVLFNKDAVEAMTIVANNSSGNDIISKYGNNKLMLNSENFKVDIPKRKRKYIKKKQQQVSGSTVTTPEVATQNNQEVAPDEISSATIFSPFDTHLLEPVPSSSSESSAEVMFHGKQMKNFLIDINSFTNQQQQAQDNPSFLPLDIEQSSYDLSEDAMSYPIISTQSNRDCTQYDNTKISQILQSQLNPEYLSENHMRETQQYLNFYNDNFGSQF
Assay: PBM E-score (8-mer binding enrichment) (E-score (-0.5 to 0.5)); higher = stronger / more preferred TF binding; most listed sequences are background and not binding sites
Conditions: protein concentration: 200 nM; construct: GST-full length
Experimental: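 Universal 'all 10-mer' protein binding microarrays (Agilent AMADID 015681) probed with GST-tagged S. cerevisiae TFs (full-length or DBD) made by in vitro transcription/translation (PURExpress), about 100-200 nM. Bound TF was detected with fluorescent anti-GST. Each ungapped 8-mer (which stands for itself and its reverse complement) is scored by the PBM enrichment score (E-score), a modified Wilcoxon-Mann-Whitney statistic from -0.5 to +0.5, computed with the Universal PBM Analysis Suite. Scale: above 0.35 generally sequence-specific binding.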

Row | Sequence | PBM E-score
1 | CCATTTAA | 0.214
2 | ATCCTTGG | 0.0305
3 | AGAAAAAA | 0.117
4 | AATTCGAG | -0.0539
5 | GCACCGAA | 0.238
6 | ACGAAACC | 0.174
7 | CAGGTCGA | -0.112
8 | GGATTCGA | -0.244
9 | AAGTTGAG | 0.00627
10 | AAGACTGT | -0.159
11 | ACTTCTCG | -0.00132
12 | AACTCGTC | -0.0438
13 | GTGTCAGA | -0.0659
14 | GTACTGCA | -0.213
15 | ACTGCTCT | -0.179
16 | GACCAATC | 0.016
17 | AGGGGGTC | -0.329
18 | ATGGCCTA | 0.0402
19 | ATTAACGG | 0.134
20 | GTTGAGAA | 0.0583
21 | GACGTGCC | 0.238
22 | TCCCTGCA | -0.188
23 | GGACGTCC | -0.145
24 | CCCCAACC | -0.208
25 | CTACATCC | -0.00074

Row | Sequence | PBM E-score
26 | CATAAGTC | -0.0464
27 | CAGTACAC | -0.00593
28 | AATAGTGC | 0.182
29 | CCCGGGAG | -0.264
30 | GATTTCGA | 0.0525
31 | CAGAACAG | -0.0941
32 | AGAAAGAC | -0.179
33 | GAAATGCC | 0.358
34 | AGGCCGTA | 0.298
35 | CGCATGCA | 0.253
36 | ACTAAGAG | -0.00691
37 | AGTAATAA | 0.194
38 | AGCGGTGA | -0.0251
39 | TCTAAACA | 0.0817
40 | GCGCACCA | 0.125
41 | CCTGCTAA | -0.238
42 | AGCCGTAA | 0.31
43 | GTATGTCA | 0.0265
44 | GAGCAGCC | 0.0376
45 | CAGCCCGA | -0.192
46 | ACGCAGCG | 0.0728
47 | AGGTAGTA | 0.0699
48 | GAGTAGAA | 0.1
49 | GAAGACCA | -0.028
50 | ATAAGAGC | 0.169

Row | Sequence | PBM E-score
51 | ACGCGGCC | 0.326
52 | CGGAAGGC | 0.168
53 | AACACTGG | -0.0145
54 | CGATGGAA | 0.0937
55 | ACTCTTCC | -0.0344
56 | ACAGCCAG | -0.0916
57 | ATTCATCA | -0.0923
58 | TACTCGGA | -0.00331
59 | CACCTAGA | -0.0847
60 | AACCTACA | -0.0226
61 | TACTGGCA | -0.0612
62 | GAGGGCAA | 0.0861
63 | CTTACGAA | 0.0608
64 | AGGAACAC | 0.063
65 | AGTCATTC | -0.246
66 | ATGCGACG | -0.131
67 | AAAATTGT | 0.076
68 | CTATGCAG | 0.0393
69 | ACAAGATC | -0.121
70 | AAGAGGAT | -0.292
71 | ACTGAGGC | 0.104
72 | AATCTATC | -0.0435
73 | AACTGGAT | 0.0626
74 | CGGTTATA | -0.08
75 | GAAGCGTA | -0.105

Row | Sequence | PBM E-score
76 | GACCTTTA | -0.0597
77 | GCACGGGA | 0.128
78 | CTGCCCGC | -0.0008
79 | GGTCAGAC | -0.277
80 | ATCCATCA | 0.0768
81 | CCTTTCCA | -0.0138
82 | CGATAACC | -0.0772
83 | GCCTCTAA | 0.0553
84 | GAACTAAC | -0.027
85 | CGTCGGGC | 0.00283
86 | CTTATCCC | -0.177
87 | AATACTCC | -0.256
88 | CAGTGCCC | 0.108
89 | GATCTGAA | -0.176
90 | ACGCTAAA | 0.127
91 | GGCCATCA | -0.0599
92 | ACCTTCAT | -0.0677
93 | AAGTTATT | 0.167
94 | CAGTCGAA | -0.148
95 | GGCGAGAC | -0.12
96 | ATTTTGTC | 0.0356
97 | CAATGTGG | 0.107
98 | ACTAGATA | 0.0525
99 | ATAGTTTC | 0.00045
100 | CTGACTCA | -0.1

Row | Sequence | PBM E-score
101 | CAGTACGC | -0.111
102 | GATGTCTA | -0.015
103 | AATGGAAT | 0.136
104 | CCTTTACG | -0.0123
105 | CTGAAGCC | 0.0469
106 | ATAAAGTG | 0.0971
107 | CCTAGGAA | -0.0529
108 | CAACTCCA | -0.108
109 | AATTGGAT | 0.16
110 | GCTTTGGA | 0.103
111 | AACATCGC | -0.0551
112 | GACGATCA | -0.211
113 | GTCATAAA | -0.0336
114 | ACGTCGCG | -0.00283
115 | AAACACGC | 0.131
116 | GACCTCTA | -0.165
117 | CAAGTAGG | -0.238
118 | AGAAATAT | 0.169
119 | CGGAGTAA | -0.061
120 | GACGTGGC | 0.0455
121 | AATAACTA | 0.192
122 | CGTCGAGA | 0.0852
123 | ATCCCTGG | -0.123
124 | CGGGACTC | -0.11
125 | CTTATTCA | -0.0168

Row | Sequence | PBM E-score
126 | TAATAAGA | 0.168
127 | ATTAAAAT | 0.184
128 | CGGTAGTC | -0.192
129 | TCCCACAA | -0.149
130 | GCAATGAC | -0.125
131 | CCATTAAG | -0.0189
132 | AAAACATT | 0.183
133 | TGTGCGAA | 0.147
134 | AGCATCGA | -0.0592
135 | AACATCTT | -0.0911
136 | AGGATAAT | 0.0412
137 | ATGCAAGA | 0.00645
138 | GAAGTCTA | -0.365
139 | ACCAGGCG | -0.143
140 | CACCCTCA | -0.315
141 | AAAAGCTA | -0.0536
142 | ATAAAGTA | 0.107
143 | CTGCTCCC | -0.208
144 | TCCTTAAA | 0.0727
145 | AGTACCCA | -0.186
146 | CTTTACTC | 0.125
147 | CGGGGCTA | -0.146
148 | AAGTCTTG | -0.00682
149 | GGGTTTTA | 0.0768
150 | ACGCCCGG | -0.15

Row | Sequence | PBM E-score
151 | GGCCTCAA | -0.0681
152 | AGCCCCGG | -0.07
153 | CCCTCAGC | -0.239
154 | AAATCACG | 0.204
155 | CCCGCGGC | 0.411
156 | CAGCCTCC | -0.221
157 | ACTCGCAA | -0.0302
158 | ATGTTACG | 0.0345
159 | CATACATG | 0.00682
160 | CTCCAAGC | -0.0932
161 | GGGCGCGA | 0.28
162 | AGAGGAAG | -0.188
163 | AATCTCGG | -0.0866
164 | TCCGCAGA | -0.0849
165 | ATCCGCGC | 0.212
166 | CACGAGCA | -0.155
167 | AAACCTGG | -0.06
168 | GATCAACA | -0.0194
169 | CGTGAGAC | 0.14
170 | GGGGGGTA | -0.342
171 | AACAATTG | -0.0991
172 | GACTTACC | -0.169
